Test results as given in PubChem BioAssay AID651820 (National Center for Advancing Translational Sciences (NCATS), 2012).
In all, about 340,000 compounds went through this assay and about 12,000 (3.5%) were called active. Inconclusive results, whose numbers are uncertain, are shown with a selection of clear calls. The call rests on the fitted dose curve; in most records, active means well fitted inhibition curve with a large enough effect; inconclusive means small, poorly fitted or top-dose-only effect, or another doubt; inactive means no such curve, though single readings can be large or run the other way. Potencies of inconclusive entries are left out as doubtful fits.

test: qHTS Assay for Inhibitors of Hepatitis C Virus (HCV); details: Huh7.5.1 HCVcc-Cre (HCVcc is cell-culture hepatitis C virus) infection, luciferase reporter, 44 h; activity change, negative = inhibition: at 41.8 µM (top of the series)
How it was run: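 Seed cells (1,000/well) for 4 h; treat with compound and infect with HCVcc-Cre, moi about 0.5. Incubate 44 h, then detect luciferase activity.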
On the % scale 0 is the no-effect control and ±100 the full control effect; potency means the concentration at half of the fitted maximal effect; tags describe the fitted curve by direction and shape.

| Compound | Potency | activity change, negative = inhibition |
| --- | --- | --- |
| COc1ccccc1NC(=O)/C(N=Nc1ccc(C)c(S(=O)(=O)Nc2ccccc2Cl)c1)=C(\C)O | inconclusive [inhibitor, full curve] | – |
| CC1CCc2c(C(=O)N3CCN(S(=O)(=O)c4cccs4)CC3)csc2C1 (stereo not given) | inconclusive [inhibitor, partial curve] | – |
| O=CN1CCN(C(C(=O)NC2CCCCC2)c2ccc(Cl)cc2)CC1 (stereo not given) | inactive | – |
| COc1ccccc1NC(=O)C(C)OC(=O)C1CC(=O)N(c2ccc3c(c2)OCCO3)C1 (stereo not given) | inactive | – |
| CC(C)c1ccc(-c2nn(-c3ccccc3)cc2C(=O)NCC2CCCO2)cc1 (stereo not given) | inconclusive [inhibitor, single point] | – |
| Cc1ccc(Cn2cc(-c3ccccc3)nn2)cc1 | inconclusive [inhibitor, partial curve] | – |
| COc1ccccc1N1CCc2c(C)nc3c(OC)cccc3c21 | inconclusive [inhibitor, single point] | – |
| CC(=O)N1CCOc2ccc(S(=O)(=O)NCCc3ccc(Cl)cc3)cc21 | inconclusive [inhibitor, single point] | – |
| C[C@H](CO)N1C[C@H](C)[C@@H](CN(C)C(=O)NC2CCCCC2)Oc2ccc(NC(=O)C3CCCCC3)cc2C1=O | inactive | – |
| Cc1ccc2nc(SCc3nc4cc(Cl)ccc4c(=O)[nH]3)[nH]c2c1 | inconclusive [inhibitor, single point] | – |
| CN1CCN(CCCC(=O)c2ccc(C3CCCC3)cc2)CC1 | inconclusive [inhibitor, partial curve, poor fit] | – |
| CC(=O)O[C@H]1[C@H]2O[C@]23[C@@H]2CC[C@]4(O)C[C@@H](O)CC[C@]4(C)C2CC[C@]3(C)[C@H]1c1ccc(=O)oc1 (stereo not given in full) | active: 3.16 µM | – |
| CCOc1ccc(-c2nnc(SCC(=O)Nc3ccc4c(c3)c3ccccc3n4CC)n2N)cc1 | active: 3.98 µM | – |
| NC(=O)c1cc(N)ccc1N1CCCC1 | inactive | – |
| COc1ccc(N2COC3c4cccc5cccc(c45)C32)cc1 (stereo not given) | inconclusive [inhibitor, single point] | – |
| COC(=O)c1c(C)n(-c2ccc(OC)cc2)c2ccc(O)cc12 | active: 11.2 µM | – |
| CCN(CC)CCCNC1=C(Cl)C(=O)c2ccccc2C1=O | active: 3.16 µM | – |
| CC(=O)Nc1cc2oc3ccccc3c2cc1[N+](=O)[O-] | inconclusive [inhibitor, single point] | – |
| COc1ccccc1NC(=O)c1ccc(NC(=O)CSc2nncn2C)cc1 | inconclusive [inhibitor, partial curve, poor fit] | – |
| O=C(NCCCN1CCOCC1)C(=O)c1c[nH]c2ccccc12 | inactive | – |
| Cc1nc(N2CCOCC2)nc(Oc2ccccc2F)c1[N+](=O)[O-] | inconclusive [inhibitor, full curve, poor fit] | – |
| CCOC(=O)C1CCN(c2cc3c(cc2NC(=O)c2ccccc2Cl)n(C)c(=O)n3C)CC1 | inconclusive [inhibitor, single point] | – |
| CC(C)n1c(Nc2ccccc2)nc2ccccc21 | inconclusive [inhibitor, single point] | – |
| CCN(CC)S(=O)(=O)c1cccc(NC(=O)Nc2cccc(C(F)(F)F)c2)c1 | active: 2 µM | – |

| Compound | Potency | activity change, negative = inhibition |
| --- | --- | --- |
| CC(C)CC(=O)Nc1ccc(C(=O)NNC(=S)NC(=O)C2CCCCC2)cc1 | inconclusive [inhibitor, single point] | – |
| Cc1cc(C)cc(NC(=S)NCc2ccc3[nH]c4c(c3c2)CCCC4)c1 | inconclusive [inhibitor, partial curve] | – |
| Cc1ccnc2nc(C(=O)Nc3nnc(CC(C)C)s3)nn12 | inconclusive [inhibitor, partial curve] | – |
| COc1ccccc1-c1sc2ccccc2c1-c1ccc(OCCN2CCCCC2)cc1 | inconclusive [inhibitor, full curve] | – |
| COc1cccc(NC(=S)NC(=O)/C=C/c2ccco2)c1 | inconclusive [inhibitor, single point] | – |
| COc1ccc(NC(=O)CCCN2C(=O)/C(=C\c3ccco3)SC2=S)cc1 | inconclusive [inhibitor, partial curve] | – |
| O=C1OC(c2ccc3ccccc3c2O)(c2ccc3ccccc3c2O)c2ccccc21 | inconclusive [inhibitor, full curve, poor fit] | – |
| O=C(NC1CCCC1)C1CCCN1C(=O)Oc1ccccc1 (stereo not given) | inactive | – |
| COc1ccc(C(=O)c2c(C(F)(F)F)oc3c2C(=O)c2ccccc2C3=O)cc1 | active: 1.58 µM | – |
| O=C(Nc1cccnc1Cl)c1cccnc1Cl | inactive | – |
| Cc1sc2nc(COC(=O)c3cccc(S(=O)(=O)N(C)c4ccccc4)c3)[nH]c(=O)c2c1C | inconclusive [inhibitor, full curve] | – |
| Fc1ccc2[nH]c3c(N4CCc5ccccc5C4)ncnc3c2c1 | active: 5.01 µM | – |
| Cc1ccc(C)c(C(=O)Cn2c(NCCO)nc3ccccc32)c1 | inactive | – |
| O=C(Nc1sc2c(c1C(=O)O)CCCCC2)c1cccnc1 | inactive | – |
| CCN(C[C@H]1N[C@@](CC)(C(=O)OC)[C@H]2C(=O)N(Cc3ccccc3)C(=O)[C@@H]12)S(=O)(=O)c1ccc(C)cc1 | inconclusive [inhibitor, single point] | – |
| CCOC(=O)C1CCCN(C(=O)c2cn(CC)c(=O)c3cc(OC)c(OC)cc23)C1 (stereo not given) | inactive | – |
| CCc1nc(N2CCN(Cc3ccc4c(c3)OCO4)CC2)c2oc3ccccc3c2n1 | inconclusive [inhibitor, single point] | – |
| Cc1cccc(CSCCNC(=S)Nc2ccccc2)c1 | inconclusive [inhibitor, partial curve] | – |
| CCOC(=O)c1nnn(-c2nonc2N)c1-c1cccs1 | inactive | – |
| O=C(Cn1cnc2scc(-c3cccc([N+](=O)[O-])c3)c2c1=O)NCc1ccco1 | – | inconclusive: -50.6% [inhibitor] |
| c1cc2c(cc1-c1csc(NNC3=NCCCCC3)n1)OCCO2 | inconclusive [inhibitor, partial curve] | – |
| CCC1(C)CN=C(c2ccccc2)NC1 (stereo not given) | inactive | – |
| COc1ccc(/C=N/Nc2nc(C)cc(-c3ccccc3)n2)c(OC)c1 | inconclusive [inhibitor, single point] | – |
| O=C(c1cc(COc2ccc(F)cc2Cl)on1)N(CCO)Cc1cccs1 | inconclusive [inhibitor, single point] | – |

| Compound | Potency | activity change, negative = inhibition |
| --- | --- | --- |
| O=C1c2ccccc2C(=O)C1c1ccncc1 | inconclusive [inhibitor, single point] | – |
| COc1cccc(SCc2noc(C(=O)NC(C)C)c2C(=O)NC(C)C)c1 | inconclusive [inhibitor, partial curve] | – |
| N#CC(=C(O)CN1CCN(c2ccccc2F)CC1)c1nc(-c2ccc(Cl)cc2)cs1 | inactive | – |
| Cn1cnnc1Sc1ccc(C(=O)NCCC(c2ccccc2)c2ccccc2)cc1[N+](=O)[O-] | inconclusive [inhibitor, partial curve] | – |
| CN1CCN(C2=C(Cl)C(=O)c3ccccc3C2=O)CC1 | active: 7.08 µM | – |
| Nc1nonc1C(=Nc1ccccc1)NO | inactive | – |
| Cc1cccc(/C=C/C(=O)c2cc(Br)ccc(=O)c2O)c1 | active: 14.1 µM | – |
| COc1ccc(Cl)cc1C(=O)NNC(=O)c1nn(C)c(=O)c2ccccc12 | inconclusive [inhibitor, single point] | – |
| C=CCOC(=O)C(C#N)c1nc2ccccc2nc1N1CCC(C(=O)OCC)CC1 (stereo not given) | inconclusive [inhibitor, partial curve, poor fit] | – |
| CCc1ccc2nc(N(CCCN(C)C)C(=O)c3ccc4c(c3)OCCO4)sc2c1 | inconclusive [inhibitor, single point] | – |
| CCCCN1CN(S(=O)(=O)c2cccs2)c2nc3ccccc3nc21 | inconclusive [inhibitor, single point] | – |
| Cc1nn(C(=O)c2ccc([N+](=O)[O-])cc2)c(C)c1Br | inactive | – |
| O=C(CCCOc1ccc(Cl)cc1)NC1CCCCC1 | inactive | – |
| Cc1c(CCOC(=O)C23CC4CC(CC(C)(C4)C2)C3)sc[n+]1CC(=O)c1ccccc1 | inconclusive [inhibitor, single point] | – |
| CC(C)(C)OC(=O)C[C@H]1C/C=C\C[C@H](CC(=O)N[C@@H](CO)Cc2ccccc2)C(=O)N[C@H](C(C)(C)C)COC1=O | inactive | – |
| COc1ccc(C(C[N+](=O)[O-])C2(c3ccc(OC)c(OC)c3)C(=O)c3ccccc3C2=O)cc1 (stereo not given) | inconclusive [inhibitor, partial curve, poor fit] | – |
| COc1cccc(C2=CC(c3cccc(OC)c3OC(F)F)n3nnnc3N2)c1 (stereo not given) | inconclusive [inhibitor, partial curve] | – |
| O=C(CCCCCN1C(=O)c2ccccc2C1=O)Nc1ccc2c(c1)OCCO2 | inactive | – |
| O=C(C1CC1)N1CCc2cc(S(=O)(=O)N(CCO)Cc3ccccc3)ccc21 | inconclusive [inhibitor, single point] | – |
| CCOC(=O)c1c(NC(=O)CN2C(=O)C(=O)N(CC(C)C)C2=O)sc(C)c1CC | inconclusive [inhibitor, full curve] | – |
| Cc1ccccc1CN1CCN(c2nc3ccccc3s2)CC1 | inconclusive [inhibitor, single point] | – |
| COc1cc([N+](=O)[O-])ccc1NC(=O)Cc1ccc(F)cc1 | inactive | – |
